The list shows a part of the results, in another mix than the full data. Effects have a minus sign here.
Target: human ether-à-go-go-related gene (hERG) potassium channel (human, UniProt Q12809)
Test: primary screen, population patch clamp on CHO cells stably expressing hERG; higher = less effect of the substance
Experimental: Briefly, Chinese hamster ovary (CHO) cells stably expressing the hERG channel were dislodged from tissue culture flasks and dispensed into PPC plates. […] During the recording, background leak currents were estimated by a 100 ms step to -80 mV from an initial holding potential of -70 mV and subtracted from the subsequent current measurement. The campaign was conducted in two phases using slight differences in recording protocol. In the first phase, the initial voltage pulse used a 100 ms step to -30 mV from a holding potential of -70 mV, a 2 s conditioning step to +25 mV, and a 2 s test step to -30 mV. During the second phase of the screen, the potential during the conditioning step was raised to +45 mV. In both phases of the campaign, a secondary voltage pulse was applied using the same parameters as the second phase initial pulse. The initial and secondary pulses were applied in the absence of compound, and upon application of 1 μM and 10 μM test concentrations. […]
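Note: peak tail current of the secondary pulse compared with the same well before compound.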

SMILES	hERG current change (%, negative = inhibition) at 10uM
Cc1ccccc1C(OCCN(C)C)c1ccccc1.O=C(O)CC(O)(CC(=O)O)C(=O)O (stereo not shown)	-44.4%
CNCC[C@H](Oc1ccc(C(F)(F)F)cc1)c1ccccc1.Cl	-25%
Br.CN1[C@@H]2CC[C@H]1CC(OC(=O)C(O)c1ccccc1)C2 (stereo partly shown)	3.45%
CN[C@H]1CCc2cc(OC)c(OC)c(OC)c2-c2ccc(OC)c(=O)cc21	4.15%
